Binding signal (fold enrichment over input) data for 20 sequences are collected here from PMC12529666.

This is a selection; strong and weak results do not stand in their true shares. At the low end of the ranking the order means little. The list shows a part of the results.

Assay [1] addresses AGO2 WT (phosphosite mutant background) S387D + S824A + S828D + S831D + S834A (UniProt Q9UKV8). Description: RNA Bind-n-Seq (nitrocellulose filter binding and sequencing). The conditions noted are these: constant regions annealed to DNA blockers; guide miR-122 5' phosphate; 30 mM Tris pH 8.0, 100 mM potassium acetate, 2 mM magnesium acetate, 0.5 mM TCEP, 0.005% NP-40, 0.01 mg/ml yeast tRNA; 3 nM AGO2-miR-122, 100 nM RNA library …; high values mean tight binding.

For assay [2], the target named is AGO2 F182del S387D + S824A + S828D + S831D + S834A + del182-182 (UniProt Q9UKV8). The description is as above. Conditions: constant regions annealed to DNA blockers; guide miR-122 5' phosphate; 30 mM Tris pH 8.0, 100 mM potassium acetate, 2 mM magnesium acetate, 0.5 mM TCEP, 0.005% NP-40, 0.01 mg/ml yeast tRNA; 3 nM AGO2-miR-122, 100 nM RNA library …; high values mean tight binding.

“GAGUUCUACAGUCCGACGAUCCCAACAUAUCCUACACCUGGAAUUCUCGGGUGCCAA / UGGAGUGUGACAAUGGUGUUUG / GATCGTCGGACTGTAGAACTC / TTGGCACCCGAGAATTCCA”: the results for the binding signal (fold enrichment over input) in assay [1] and in assay [2] were 0.102 and 0.0777, respectively.
The corresponding values for “GAGUUCUACAGUCCGACGAUCCCAACGCAUCUUACACCUGGAAUUCUCGGGUGCCAA / UGGAGUGUGACAAUGGUGUUUG / GATCGTCGGACTGTAGAACTC / TTGGCACCCGAGAATTCCA” are 0.12 and 0.109.
“GAGUUCUACAGUCCGACGAUCCCAACACGCCCUACACCUGGAAUUCUCGGGUGCCAA / UGGAGUGUGACAAUGGUGUUUG / GATCGTCGGACTGTAGAACTC / TTGGCACCCGAGAATTCCA”: the figures for the binding signal (fold enrichment over input) in assay [1] and in assay [2] were 0.107 and 0.0852, respectively.
For “GAGUUCUACAGUCCGACGAUCCCAACACGCUCUACACCUGGAAUUCUCGGGUGCCAA / UGGAGUGUGACAAUGGUGUUUG / GATCGTCGGACTGTAGAACTC / TTGGCACCCGAGAATTCCA”, in that order: 0.111 and 0.112.
The corresponding values for “GAGUUCUACAGUCCGACGAUCCCAACGUGCUUUGCACCUGGAAUUCUCGGGUGCCAA / UGGAGUGUGACAAUGGUGUUUG / GATCGTCGGACTGTAGAACTC / TTGGCACCCGAGAATTCCA” are 0.117 and 0.0494.
As for “GAGUUCUACAGUCCGACGAUCCCAACGUGUCCUACACCUGGAAUUCUCGGGUGCCAA / UGGAGUGUGACAAUGGUGUUUG / GATCGTCGGACTGTAGAACTC / TTGGCACCCGAGAATTCCA”, the binding signal (fold enrichment over input) in assay [1] came out at 0.101; in assay [2], 0.0686.
For “GAGUUCUACAGUCCGACGAUCCCAACAUACCCUGCACCUGGAAUUCUCGGGUGCCAA / UGGAGUGUGACAAUGGUGUUUG / GATCGTCGGACTGTAGAACTC / TTGGCACCCGAGAATTCCA”, in that order: 0.0988 and 0.0596.
For “GAGUUCUACAGUCCGACGAUCCCAACGUACUUUACACCUGGAAUUCUCGGGUGCCAA / UGGAGUGUGACAAUGGUGUUUG / GATCGTCGGACTGTAGAACTC / TTGGCACCCGAGAATTCCA”, in that order: 0.112 and 0.0693.
Regarding “GAGUUCUACAGUCCGACGAUCCCAACAUGUCCCGCACCUGGAAUUCUCGGGUGCCAA / UGGAGUGUGACAAUGGUGUUUG / GATCGTCGGACTGTAGAACTC / TTGGCACCCGAGAATTCCA”, the binding signal (fold enrichment over input) came out at 0.0871 in assay [1] and 0.0432 in assay [2].
On to “GAGUUCUACAGUCCGACGAUCCCAACGCGUCCUGCACCUGGAAUUCUCGGGUGCCAA / UGGAGUGUGACAAUGGUGUUUG / GATCGTCGGACTGTAGAACTC / TTGGCACCCGAGAATTCCA”, for which the values for the binding signal (fold enrichment over input) in assay [1] and in assay [2] were 0.0991 and 0.0426, respectively.
For “GAGUUCUACAGUCCGACGAUCCCAACGUAUUUUGCACCUGGAAUUCUCGGGUGCCAA / UGGAGUGUGACAAUGGUGUUUG / GATCGTCGGACTGTAGAACTC / TTGGCACCCGAGAATTCCA”, in that order: 0.0918 and 0.0411.
For the sequence “GAGUUCUACAGUCCGACGAUCCCAACGUGUCUCGCACCUGGAAUUCUCGGGUGCCAA / UGGAGUGUGACAAUGGUGUUUG / GATCGTCGGACTGTAGAACTC / TTGGCACCCGAGAATTCCA”, the binding signal (fold enrichment over input) in assay [1] amounted to 0.0861; in assay [2], 0.0405.
The corresponding values for “GAGUUCUACAGUCCGACGAUCCCAACAUGCCUCACACCUGGAAUUCUCGGGUGCCAA / UGGAGUGUGACAAUGGUGUUUG / GATCGTCGGACTGTAGAACTC / TTGGCACCCGAGAATTCCA” are 0.127 and 0.9.
For “GAGUUCUACAGUCCGACGAUCCCAACAUACCUUGCACCUGGAAUUCUCGGGUGCCAA / UGGAGUGUGACAAUGGUGUUUG / GATCGTCGGACTGTAGAACTC / TTGGCACCCGAGAATTCCA”, in that order: 0.086 and 0.0602.
For “GAGUUCUACAGUCCGACGAUCCCAACAUGCUUCACACCUGGAAUUCUCGGGUGCCAA / UGGAGUGUGACAAUGGUGUUUG / GATCGTCGGACTGTAGAACTC / TTGGCACCCGAGAATTCCA”, in that order: 0.135 and 0.842.
As to “GAGUUCUACAGUCCGACGAUCCCAACAUGCUCUACACCUGGAAUUCUCGGGUGCCAA / UGGAGUGUGACAAUGGUGUUUG / GATCGTCGGACTGTAGAACTC / TTGGCACCCGAGAATTCCA”, the binding signal (fold enrichment over input) in assay [1] worked out at 0.0984; in assay [2], 0.0764.
The corresponding values for “GAGUUCUACAGUCCGACGAUCCCAACACGCUUUGCACCUGGAAUUCUCGGGUGCCAA / UGGAGUGUGACAAUGGUGUUUG / GATCGTCGGACTGTAGAACTC / TTGGCACCCGAGAATTCCA” are 0.0892 and 0.0465.
With “GAGUUCUACAGUCCGACGAUCCCAACACGUUUUGCACCUGGAAUUCUCGGGUGCCAA / UGGAGUGUGACAAUGGUGUUUG / GATCGTCGGACTGTAGAACTC / TTGGCACCCGAGAATTCCA”, the binding signal (fold enrichment over input) in assay [1] amounted to 0.0911; in assay [2], 0.0468.
With “GAGUUCUACAGUCCGACGAUCCCAACAUGUUUUGCACCUGGAAUUCUCGGGUGCCAA / UGGAGUGUGACAAUGGUGUUUG / GATCGTCGGACTGTAGAACTC / TTGGCACCCGAGAATTCCA”, the binding signal (fold enrichment over input) worked out at 0.0972 in assay [1] and 0.0437 in assay [2].
For “GAGUUCUACAGUCCGACGAUCCCAACACGUUUCACACCUGGAAUUCUCGGGUGCCAA / UGGAGUGUGACAAUGGUGUUUG / GATCGTCGGACTGTAGAACTC / TTGGCACCCGAGAATTCCA”, in that order: 0.146 and 1.44.
